Measurements taken from PubChem BioAssay AID463173 (ICCB-Longwood Screening Facility, Harvard Medical School, 2010).
Hit rate of the full screen: of about 52,000 compounds, about 1,700 (3.3%) were called active. Rule as the data show it: active = survival mostly below about 52% (no sharp cut-off); inactive = mostly above about 56%. This is one part of the list.

Each molecule was assayed on Wild type (assay: S. aureus survival, RN4220 and DeltatarO strains – OD600, teichoic acid synthesis inhibitors, primary screen (AID 463173)). Conditions: S. aureus RN4220 wild type/DeltatarO growth, OD600, 18 h, hits give low values, screened at 18.75 µg/mL (by protocol).

Row | SMILES | survival
1 | Cc1ccc(CCNC(=O)c2cn(C)c3ccc(S(=O)(=O)N4CCC(C)CC4)cc3c2=O)cc1 | inactive: 82%
2 | Cc1cc(C)c(NC(=O)CCCn2c(C)c3cnn(-c4ccccc4)c(=O)c3c2C)c(C)c1 | inactive: 123%
3 | CC(C)CC(=O)Nc1nnc(SCc2cc(=O)n3ccccc3n2)s1 | inactive: 82%
4 | CCN(CC)S(=O)(=O)c1ccc2[nH]cc(C(=O)NCCc3ccccc3)c(=O)c2c1 | inactive: 84%
5 | O=c1c(S(=O)(=O)c2cccc(Cl)c2)cn(Cc2ccccc2)c2cc(N3CCCCC3)c(F)cc12 | inactive: 67%
6 | COc1ccccc1NC(=O)CN1C(=O)CSc2ccc(S(=O)(=O)N3CCCC3)cc21 | inactive: 98%
7 | CCOC(=O)c1c(S(=O)(=O)NCC(=O)Nc2ccc(F)cc2C)c(C)n(C)c1C | inactive: 84%
8 | COc1cc(OC)cc(-c2nc3nc(C)c(CCC(=O)NCCC(C)C)c(C)n3n2)c1 | inactive: 77%
9 | O=C(Nc1ccccc1C(F)(F)F)c1ccncc1 | inactive: 83%
10 | COc1cc(OC)c(NC(=O)c2c(C)oc3nc(C)nc(N4CCOCC4)c23)cc1Cl | inactive: 81%
11 | CCOC(=O)C1=C(O)CSC1=NC(=O)c1ccc(OC)cc1 | inactive: 121%
12 | CCn1ccc2cc(S(=O)(=O)N3CCC(C(=O)NCCc4ccccc4)CC3)ccc21 | inactive: 66%
13 | CC(=O)C1=C(c2ccc(Br)cc2)N(C(C)=O)n2c(nnc2C2CCCCC2)S1 | inactive: 72%
14 | Cc1cccc(CNC(=O)c2ccc(C)c(-n3c(C)nc4cccnc43)c2)c1 | inactive: 73%
15 | CCOc1ccc(-n2c(=O)c3c(C)c(C)sc3n(CC(=O)N3CCC(C)CC3)c2=O)cc1 | inactive: 88%
16 | O=C(NCc1ccccc1Cl)c1ccc(Cn2c(=O)c3cccn3c3cccnc32)cc1 | inactive: 111%
17 | COc1cccc(-n2cc(C(=O)OCc3ccc(Cl)cc3)c3ccccc3c2=O)c1 | inactive: 94%
18 | COCCCNC(=O)c1cnn(-c2ccc(F)cc2F)c1C1CCNCC1 | inactive: 118%
19 | CC(/C=C/c1ccccc1)=N\Nc1nc2c(c(=O)[nH]c(=O)n2C)n1CC(O)COC(C)C (stereo not drawn) | inactive: 108%
20 | Cc1ccc2scc(N3CCCCC3)c(=O)c2c1 | inactive: 85%
21 | COc1ccc(NC(=O)CC2C(=O)N(c3ccc(F)cc3)C(=O)N2CCc2sccc2C)cc1 (stereo not drawn) | inactive: 75%
22 | CCOC(=O)c1cc(-c2ccccc2)n(CCC(=O)Nc2cc(C)cc(C)c2)c1C | inactive: 80%

Row | SMILES | survival
23 | Nc1ccc2nc(-c3ccc(O)cc3)sc2c1 | inactive: 146%
24 | O=C(NC1CCCCC1)N1CCN(Cc2ccccc2)CC1 | inactive: 108%
25 | Cc1ccc(N2CCN(C(=O)C3CCN(c4ncnc5c4nc4n5CCCCC4)CC3)CC2)c(C)c1 | inactive: 55%
26 | Cc1ccc2nc(NC(=O)c3nc(SCc4ccccc4C)ncc3Cl)sc2c1 | inactive: 113%
27 | CN(Cc1ccccc1)C(=O)C1CCC(CNS(=O)(=O)c2ccc3c(c2)CCCC(=O)N3)CC1 (stereo not drawn) | inactive: 131%
28 | Cc1ccc(S(=O)(=O)N2CCC(NC(=O)c3ccccc3)CC2)cc1 | inactive: 101%
29 | Cc1ccc2ncc(C(=O)NC(C)c3ccccc3)c(=O)n2c1 (stereo not drawn) | inactive: 91%
30 | Cc1cc(C)c(NC(=O)CS(=O)CC(=O)N2CCN(c3ccccc3)CC2)c(C)c1 (stereo not drawn) | inactive: 102%
31 | O=C(O)CCc1nnc2cnc3ccccc3n12 | inactive: 136%
32 | CCc1nn(CC(=O)NCCCc2ccccc2)c(=O)c2cc3c(OC)cccc3n12 | inactive: 93%
33 | COc1cc(NC(=O)NCC2CCN(Cc3ccc(C)cc3)CC2)cc(OC)c1OC | inactive: 131%
34 | Cc1ccc(N2C(=O)CS(=O)(=O)C23C(=O)N(C)c2ccccc23)cc1F (stereo not drawn) | inactive: 75%
35 | Cc1ccc(C)c(Nc2cc(C(=O)NCCCN(C)C3CCCCC3)c3ccccc3n2)c1 | inactive: 99%
36 | Cc1ccc(N2CCN(C(=O)c3c(C)oc4ncnc(N5CCOCC5)c34)CC2)c(C)c1 | inactive: 83%
37 | Cc1ccc(CNC(=O)c2cnc3c(-c4ccccc4)c(C)nn3c2C)o1 | inactive: 76%
38 | O=[N+]([O-])c1cc(-c2nc(-c3ccccn3)no2)ccc1NCc1ccccc1 | inactive: 73%
39 | Cc1ccc(C(=O)Nc2nnc(S(=O)(=O)N3CCN(c4ccc(F)cc4)CC3)s2)cc1 | inactive: 86%
40 | Cc1ccc(CN2CCCn3nc(C(=O)NCc4cc(C)ccc4C)cc3C2=O)cc1 | inactive: 82%
41 | Cc1cc(N2CCCC(O)C2)n2nc(C)c(-c3ccc(F)cc3)c2n1 (stereo not drawn) | inactive: 120%
42 | CCc1cccc(NC(=O)CSc2ncc3c(n2)-c2ccccc2N(CC)S3(=O)=O)c1 | inactive: 95%
43 | COc1ccc(NC(=O)C(C)n2nc(-c3cc(C)ccc3C)c3c(c2=O)CCCC3)cc1 (stereo not drawn) | inactive: 70%
44 | COCCNC(=O)CSc1nc2cc3c(cc2c(=O)n1Cc1ccc(C(=O)NCCc2ccc(OC)c(OC)c2)cc1)OCO3 | inactive: 79%

Row | SMILES | survival
45 | CCOc1ccc(NC(=O)CSc2nnc(-c3ccncc3)n2-c2ccccc2)cc1 | inactive: 127%
46 | COCCCNC(=O)CCC(=O)NNc1nc2ccccc2c2nc(-c3ccccc3)nn12 | inactive: 88%
47 | O=C(NCCc1ccccc1)C(=O)NCC(c1ccco1)S(=O)(=O)c1ccccc1 (stereo not drawn) | inactive: 90%
48 | COc1ccc(CNC(=O)c2ccc(CSc3nc4ccncc4n3Cc3ccccc3F)cc2)cc1 | inactive: 83%
49 | CCOc1ccc(Nc2ncnc3c2cnn3-c2ccc(F)cc2)cc1 | inactive: 60%
50 | CCOC(=O)C(=O)Nc1nnc2n1CCS2 | inactive: 71%
51 | Cc1nc(N2CCCC2)ncc1C(=O)N1CCN(c2ccc(Cl)cc2)CC1 | inactive: 99%
52 | Cc1ccc(C)c(-n2cc(-c3ccccc3)nc2SCC(=O)Nc2ccccc2)c1 | inactive: 72%
53 | Cc1nc2c(C(=O)NCc3ccccc3Cl)cnn2c(C)c1Cc1ccccc1 | inactive: 85%
54 | COc1ccc(NC(=O)Cn2c(=O)n(Cc3ccccc3)c(=O)c3oc4ccccc4c32)cc1Cl | inactive: 76%
55 | COc1cccc(-c2csc(-c3c(N)c(C(=O)c4ccccc4)n4ccccc34)n2)c1 | inactive: 72%
56 | COc1cc(OC)cc(C(=O)c2coc3ccc(O)c(CN4CCOCC4)c23)c1 | inactive: 104%
57 | O=C(CSc1nc2c([nH]c3ccccc32)c(=O)n1-c1ccc(Cl)cc1)N1CCCCCC1 | inactive: 88%
58 | Cn1cc(S(=O)(=O)N2CCCCC2)cc1C(=O)N1CCN(c2ccccc2F)CC1 | inactive: 87%
59 | CC(C)(CO)NC(=O)c1ccc(Cl)c(S(=O)(=O)N2CCCCC2)c1 | inactive: 114%
60 | CCOC(=O)c1ccccc1NC(=O)Cn1c(=O)n(CCCC(=O)NCc2ccc3c(c2)OCO3)c(=O)c2ccccc21 | inactive: 91%
61 | OCC#Cc1cnc2ccccc2c1 | inactive: 104%
62 | CN(C(=O)c1c2c(nc3ccccc13)C(=O)N(C1CCCCC1)C2)c1ccc(F)cc1 | active: -3%
63 | COC(=O)c1c(SCC(=O)Nc2cccc(Cl)c2C)[nH]c2ccccc2c1=O | inactive: 97%
64 | Cc1ccc(S(=O)(=O)NCCc2csc3nc(-c4ccccc4F)nn23)cc1C | inactive: 84%
65 | CCOC(=O)c1c(C)oc2ncnc(N3CCN(c4ccccc4)CC3)c12 | inactive: 68%
66 | O=[N+]([O-])c1ccc(S(=O)(=O)N2CCn3cccc3C2c2ccccc2F)cc1 (stereo not drawn) | inactive: 132%

Row | SMILES | survival
67 | CC(NC(=O)C1CCN(S(=O)(=O)c2ccc3c(c2)oc(=O)n3C)CC1)c1ccccc1 (stereo not drawn) | inactive: 95%
68 | Cc1ccc(C)c(N2CCN(c3nc4ccc(Cl)cc4n4cnnc34)CC2)c1 | inactive: 86%
69 | CC(C)(C)OC(=O)N1CCC(c2c(C(=O)N3CCC(c4ccccc4)C3)cnn2-c2ccc(Cl)cc2)CC1 (stereo not drawn) | inactive: 73%
70 | COc1cccc(-c2nc(SCc3ccc(C)cc3)n3[nH]c(=O)cc3n2)c1 | inactive: 129%
71 | COc1ccccc1-c1nc(S(=O)(=O)c2ccccc2)c(N2CCC(C)CC2)o1 | active: -5%
72 | Cc1ccccc1OCc1nnc(SCc2cc(=O)c3ccc(C)c(C)c3[nH]2)n1C | inactive: 71%
73 | CC1CCCCN1C(=O)Cn1cc(C#N)c2ccccc21 (stereo not drawn) | inactive: 92%
74 | O=S(=O)(c1ccccc1)c1cccc(S(=O)(=O)N2CCCC2)c1 | inactive: 103%
75 | Cc1ccc(-c2cc3c(n2-c2ccc(F)cc2)CC(C)(C)CC3=O)cc1 | inactive: 91%
76 | Cc1cccc(NC(=O)CSc2nc3ccccc3c3nc(CCc4c(C)n[nH]c4C)nn23)c1 | inactive: 73%
77 | CC(C)(C)NC(=O)CN1CCC(n2nnc3cc(F)ccc32)CC1 | inactive: 96%
78 | COc1ccccc1CCNC(=O)C(=O)NCC(c1ccco1)S(=O)(=O)c1ccccc1 (stereo not drawn) | inactive: 73%
79 | COc1ccc(Nc2nc3ccccc3nc2NS(=O)(=O)c2ccc(Cl)cc2)cc1OC | inactive: 52%
80 | COc1ccccc1-c1cc(C(=O)NCCc2ccccc2)no1 | inactive: 72%
81 | CC(C)c1cnc2c(c1SCC(=O)O)c(=O)n(C)c(=O)n2C | inactive: 74%
82 | CCOC(=O)c1cccc(NC(=O)CSc2nc3cc4ccccc4cc3[nH]2)c1 | inactive: 23%
83 | O=S(=O)(Nc1cccc(F)c1)c1ccc2[nH]c3c(c2c1)CCCCC3 | inactive: 81%
84 | CC(=O)Nc1ccc(NC(=O)c2cnn(-c3ccccc3)c2C2CCN(C(=O)OC(C)(C)C)CC2)cc1 | inactive: 84%
85 | CCC(C(=O)NCc1cccc(Br)c1)n1nc(C)c2c(C)n(-c3ccccc3)nc2c1=O (stereo not drawn) | inactive: 94%
86 | CCC(=O)N1CCc2cc(CNC(=O)c3ccc(C#N)cc3)ccc21 | inactive: 71%
87 | CN(C(=O)CSc1nc(-c2ccco2)cc(C(F)(F)F)n1)c1ccccc1 | inactive: 110%
88 | O=C(CNC(=O)c1ccccc1F)OCc1cc(=O)n2nc(C3CC3)sc2n1 | inactive: 136%
